Test results reported in the CheMixHub viscosity set.
Several values for one entry are separate records, joined by “and”; a condition that tells them apart may be missing. Identical values can stand only once. Further values from the same series stand in other lists.

Assay: xn = mol fraction of the nth substance listed

CN(CCO)CCO + O
Details	viscosity
293.15 K, 101 kPa, x1 = 0.061	3.712 mPa·s
298.15 K, 100 kPa, x1 = 0.131	9.32 mPa·s
298.15 K, 101 kPa, x1 = 0.061	3.136 mPa·s
298.15 K, 101.3 kPa, x1 = 0.036	1.941 mPa·s
298.15 K, 101.3 kPa, x1 = 0.061	3.092 mPa·s
298.15 K, 101.3 kPa, x1 = 0.092	5.253 mPa·s
298.15 K, 101.3 kPa, x1 = 0.13	9.208 mPa·s
298.15 K, 101.33 kPa, x1 = 0.0079	1.059 mPa·s
298.15 K, 101.33 kPa, x1 = 0.0176	1.301 mPa·s
298.15 K, 101.33 kPa, x1 = 0.0364	1.901 mPa·s
298.15 K, 101.33 kPa, x1 = 0.0612	3.057 mPa·s
298.15 K, 101.33 kPa, x1 = 0.0923	5.172 mPa·s
298.15 K, 101.33 kPa, x1 = 0.1322	9.172 mPa·s
298.15 K, 101.33 kPa, x1 = 0.1859	17.02 mPa·s
298.15 K, 101.33 kPa, x1 = 0.2526	32.11 mPa·s
298.15 K, 101.33 kPa, x1 = 0.3021	43.51 mPa·s
298.15 K, 101.33 kPa, x1 = 0.3658	56.06 mPa·s
298.15 K, 101.33 kPa, x1 = 0.5026	74.16 mPa·s
298.15 K, 101.33 kPa, x1 = 0.5653	81.05 mPa·s
298.15 K, 101.33 kPa, x1 = 0.696	82.37 mPa·s
298.15 K, 101.33 kPa, x1 = 0.8989	78.87 mPa·s
303.15 K, 101 kPa, x1 = 0.0501	2.174 mPa·s
303.15 K, 101 kPa, x1 = 0.061	2.673 mPa·s
303.15 K, 101 kPa, x1 = 0.1	4.904 mPa·s
303.15 K, 101 kPa, x1 = 0.1501	9.146 mPa·s
303.15 K, 101 kPa, x1 = 0.1992	14.78 mPa·s
303.15 K, 101 kPa, x1 = 0.2459	21.18 mPa·s
303.15 K, 101 kPa, x1 = 0.2961	29.08 mPa·s
303.15 K, 101 kPa, x1 = 0.3981	43.5 mPa·s
303.15 K, 101 kPa, x1 = 0.5001	53.57 mPa·s
303.15 K, 101 kPa, x1 = 0.5938	58.78 mPa·s
303.15 K, 101 kPa, x1 = 0.7022	61.01 mPa·s
303.15 K, 101 kPa, x1 = 0.7945	60.73 mPa·s
303.15 K, 101 kPa, x1 = 0.9015	59.34 mPa·s
303.15 K, 101.33 kPa, x1 = 0.036	1.699 mPa·s
303.15 K, 101.33 kPa, x1 = 0.061	2.622 mPa·s
303.15 K, 101.33 kPa, x1 = 0.092	4.389 mPa·s and 4.343 mPa·s
303.15 K, 101.33 kPa, x1 = 0.13	7.47 mPa·s
308.15 K, 101 kPa, x1 = 0.0501	1.886 mPa·s
308.15 K, 101 kPa, x1 = 0.061	2.301 mPa·s
308.15 K, 101 kPa, x1 = 0.1	4.094 mPa·s
308.15 K, 101 kPa, x1 = 0.1501	7.4 mPa·s
308.15 K, 101 kPa, x1 = 0.1992	11.68 mPa·s
308.15 K, 101 kPa, x1 = 0.2459	16.45 mPa·s
308.15 K, 101 kPa, x1 = 0.2961	22.24 mPa·s
308.15 K, 101 kPa, x1 = 0.3981	32.75 mPa·s
308.15 K, 101 kPa, x1 = 0.5001	40.13 mPa·s
308.15 K, 101 kPa, x1 = 0.5938	44.07 mPa·s
308.15 K, 101 kPa, x1 = 0.7022	46.03 mPa·s
308.15 K, 101 kPa, x1 = 0.7945	46.01 mPa·s
308.15 K, 101 kPa, x1 = 0.9015	45.26 mPa·s
313.15 K, 100 kPa, x1 = 0.131	5.19 mPa·s and 5.193 mPa·s
313.15 K, 101 kPa, x1 = 0.0501	1.651 mPa·s
313.15 K, 101 kPa, x1 = 0.061	1.995 mPa·s
313.15 K, 101 kPa, x1 = 0.1	3.455 mPa·s
313.15 K, 101 kPa, x1 = 0.1501	6.075 mPa·s
313.15 K, 101 kPa, x1 = 0.1992	9.391 mPa·s
313.15 K, 101 kPa, x1 = 0.2459	12.98 mPa·s
313.15 K, 101 kPa, x1 = 0.2961	17.28 mPa·s
313.15 K, 101 kPa, x1 = 0.3981	25.13 mPa·s
313.15 K, 101 kPa, x1 = 0.5001	30.65 mPa·s
313.15 K, 101 kPa, x1 = 0.5938	33.67 mPa·s
313.15 K, 101 kPa, x1 = 0.7022	35.26 mPa·s
313.15 K, 101 kPa, x1 = 0.7945	35.38 mPa·s
313.15 K, 101 kPa, x1 = 0.9015	34.96 mPa·s
313.15 K, 101.33 kPa, x1 = 0.0079	0.756 mPa·s
313.15 K, 101.33 kPa, x1 = 0.0176	0.902 mPa·s
313.15 K, 101.33 kPa, x1 = 0.036	1.316 mPa·s
313.15 K, 101.33 kPa, x1 = 0.0364	1.26 mPa·s
313.15 K, 101.33 kPa, x1 = 0.0612	1.893 mPa·s
313.15 K, 101.33 kPa, x1 = 0.092	3.13 mPa·s
313.15 K, 101.33 kPa, x1 = 0.0923	2.995 mPa·s
313.15 K, 101.33 kPa, x1 = 0.1322	5.219 mPa·s
313.15 K, 101.33 kPa, x1 = 0.1859	8.843 mPa·s
313.15 K, 101.33 kPa, x1 = 0.2526	14.32 mPa·s
313.15 K, 101.33 kPa, x1 = 0.3021	18.62 mPa·s
313.15 K, 101.33 kPa, x1 = 0.3658	23.58 mPa·s
313.15 K, 101.33 kPa, x1 = 0.5026	31.33 mPa·s
313.15 K, 101.33 kPa, x1 = 0.5653	33.63 mPa·s
313.15 K, 101.33 kPa, x1 = 0.696	35.36 mPa·s
313.15 K, 101.33 kPa, x1 = 0.8989	34.89 mPa·s
318.15 K, 101 kPa, x1 = 0.0501	1.458 mPa·s
318.15 K, 101 kPa, x1 = 0.1	2.955 mPa·s
318.15 K, 101 kPa, x1 = 0.1501	5.053 mPa·s
318.15 K, 101 kPa, x1 = 0.1992	7.624 mPa·s
318.15 K, 101 kPa, x1 = 0.2459	10.4 mPa·s
318.15 K, 101 kPa, x1 = 0.2961	13.72 mPa·s
318.15 K, 101 kPa, x1 = 0.3981	19.57 mPa·s
318.15 K, 101 kPa, x1 = 0.5001	23.77 mPa·s
318.15 K, 101 kPa, x1 = 0.5938	26.18 mPa·s
318.15 K, 101 kPa, x1 = 0.7022	27.45 mPa·s
318.15 K, 101 kPa, x1 = 0.7945	27.68 mPa·s
318.15 K, 101 kPa, x1 = 0.9015	27.44 mPa·s
323.15 K, 101 kPa, x1 = 0.0501	1.299 mPa·s
323.15 K, 101 kPa, x1 = 0.1	2.547 mPa·s
323.15 K, 101 kPa, x1 = 0.1501	4.251 mPa·s
323.15 K, 101 kPa, x1 = 0.1992	6.288 mPa·s
323.15 K, 101 kPa, x1 = 0.2459	8.455 mPa·s
323.15 K, 101 kPa, x1 = 0.2961	10.98 mPa·s
323.15 K, 101 kPa, x1 = 0.3981	15.49 mPa·s
323.15 K, 101 kPa, x1 = 0.5001	18.74 mPa·s
323.15 K, 101 kPa, x1 = 0.5938	20.63 mPa·s
323.15 K, 101 kPa, x1 = 0.7022	21.69 mPa·s
323.15 K, 101 kPa, x1 = 0.7945	21.93 mPa·s
323.15 K, 101 kPa, x1 = 0.9015	21.89 mPa·s
323.15 K, 101.33 kPa, x1 = 0.036	1.048 mPa·s
323.15 K, 101.33 kPa, x1 = 0.092	2.322 mPa·s and 2.313 mPa·s
323.15 K, 101.33 kPa, x1 = 0.13	3.606 mPa·s

O=S(=O)([O-])[O-].[O]=[V+2] + O
viscosity, 100 kPa
Details	293.15 K	298.15 K	303.15 K	308.15 K	313.15 K	318.15 K
x1 = 0.002247	–	–	–	–	0.7091 mPa·s	0.6471 mPa·s
x1 = 0.00448	1.189 mPa·s	–	0.943 mPa·s	0.8499 mPa·s	0.7702 mPa·s and 0.7702 mPa·s	0.7025 mPa·s and 0.7025 mPa·s
x1 = 0.006709	1.297 mPa·s	1.148 mPa·s	1.024 mPa·s	0.9205 mPa·s and 0.9205 mPa·s	0.8326 mPa·s and 0.8326 mPa·s	0.7572 mPa·s and 0.7572 mPa·s
x1 = 0.008924	1.418 mPa·s	1.252 mPa·s	1.115 mPa·s	1.001 mPa·s	0.9046 mPa·s	0.8211 mPa·s
x1 = 0.00893	–	–	–	1.001 mPa·s	0.9046 mPa·s	0.8211 mPa·s
x1 = 0.0111	–	–	–	1.085 mPa·s	0.978 mPa·s	0.8867 mPa·s
x1 = 0.01113	1.548 mPa·s	1.364 mPa·s	1.212 mPa·s	1.085 mPa·s	0.978 mPa·s	0.8867 mPa·s
x1 = 0.0133	–	–	–	1.182 mPa·s	1.063 mPa·s	0.9628 mPa·s
x1 = 0.01333	1.696 mPa·s	1.491 mPa·s	1.322 mPa·s	1.182 mPa·s	1.063 mPa·s	0.9628 mPa·s
x1 = 0.0155	–	–	–	1.284 mPa·s	1.153 mPa·s	1.041 mPa·s
x1 = 0.01552	1.854 mPa·s	1.627 mPa·s	1.44 mPa·s	1.284 mPa·s	1.153 mPa·s	1.041 mPa·s
x1 = 0.0177	2.031 mPa·s	1.777 mPa·s	1.57 mPa·s	1.396 mPa·s and 1.396 mPa·s	1.25 mPa·s and 1.25 mPa·s	1.127 mPa·s and 1.127 mPa·s
x1 = 0.01986	2.226 mPa·s	1.943 mPa·s	1.711 mPa·s	1.521 mPa·s and 1.52 mPa·s	1.36 mPa·s and 1.36 mPa·s	1.223 mPa·s and 1.223 mPa·s
x1 = 0.02202	2.436 mPa·s	2.121 mPa·s	–	–	–	–
x1 = 0.02418	2.662 mPa·s	2.312 mPa·s	2.027 mPa·s	1.792 mPa·s and 1.792 mPa·s	1.597 mPa·s and 1.597 mPa·s	1.431 mPa·s and 1.431 mPa·s
x1 = 0.02631	2.893 mPa·s	2.509 mPa·s	2.196 mPa·s	1.938 mPa·s and 1.938 mPa·s	1.725 mPa·s and 1.725 mPa·s	1.544 mPa·s and 1.544 mPa·s
x1 = 0.02846	3.178 mPa·s	2.736 mPa·s	2.388 mPa·s	2.092 mPa·s	1.848 mPa·s	1.642 mPa·s
x1 = 0.03056	3.499 mPa·s	3.004 mPa·s	2.617 mPa·s	2.291 mPa·s	2.022 mPa·s	1.795 mPa·s
